{
  "source": "the supplement of paper PMC9446081",
  "note": "The campaign covered roughly 39,000 compounds. About 220 (0.56%) showed activity. This is one part of the list.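 Note: static incubation at 37 °C against the wild-type strain, values averaged over two biological replicates.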",
  "data": [
    {"tested_on": "Escherichia coli K-12 BW25113", "test": "relative growth (OD600 normalised to plate interquartile mean) (fraction); higher = less growth inhibition, active = 0.2 or less", "conditions": "50 µM; LB; incubation time: overnight (16-24 h)", "values": [
      {"smiles": "Cn1c(=O)c2c(nc(Sc3nnc(N)s3)n2C)n(C)c1=O", "relative growth": "inactive: 0.967"},
      {"smiles": "C[C@H]1CN([C@@H](C)CO)C(=O)Cc2cc(NC(=O)Nc3ccc(F)cc3)ccc2O[C@H]1CN(C)Cc1ccc(Oc2ccccc2)cc1", "relative growth": "inactive: 1"},
      {"smiles": "C=CCOC(=O)C1=C[C@@H](c2csc3ccccc23)C[C@@H](OCc2ccc(COC(=O)NCCCCCC(=O)NO)cc2)O1", "relative growth": "inactive: 0.923"},
      {"smiles": "C[C@H](CO)N1C[C@H](C)[C@@H](CN(C)Cc2ccc(-c3ccccc3)cc2)Oc2c(NC(=O)Nc3ccc(F)cc3)cccc2C1=O", "relative growth": "inactive: 0.769"},
      {"smiles": "COc1cccc(NC(=O)N[C@@H]2CC[C@H](CC(=O)N3CCN(C)CC3)O[C@H]2CO)c1", "relative growth": "inactive: 0.997"},
      {"smiles": "COC(=O)CCc1c(C)[nH]c(=S)[nH]c1=O", "relative growth": "inactive: 1.01"},
      {"smiles": "c1ccc(C(c2c[nH]c3ccccc23)c2c[nH]c3ccccc23)nc1", "relative growth": "inactive: 0.985"},
      {"smiles": "COc1ccc(-c2cnc3c(c2)C(=O)N([C@H](C)CO)C[C@H](C)[C@@H](CN(C)C(=O)Cc2ccncc2)O3)cc1", "relative growth": "inactive: 0.982"},
      {"smiles": "C[C@@H]1CN([C@@H](C)CO)C(=O)c2cc(NC(=O)Nc3ccc4c(c3)OCO4)ccc2O[C@H]1CN(C)S(=O)(=O)c1cn(C)cn1", "relative growth": "inactive: 0.994"},
      {"smiles": "C[C@H](CO)N1C[C@H](C)[C@H](CN(C)Cc2ccncc2)Oc2c(NC(=O)Nc3cccc4ccccc34)cccc2C1=O", "relative growth": "inactive: 0.942"},
      {"smiles": "Cc1ccc(S(=O)(=O)Nc2ccc3c(c2)C(=O)N([C@H](C)CO)C[C@@H](C)[C@H](CN(C)C(=O)Nc2ccc(F)cc2)OCCCC[C@@H](C)O3)cc1", "relative growth": "inactive: 1"},
      {"smiles": "COc1ccc(NC(=O)Nc2ccc3c(c2)C(=O)N([C@H](C)CO)C[C@H](C)[C@H](CN(C)Cc2ccc(Cl)c(Cl)c2)OCCCC[C@H](C)O3)cc1", "relative growth": "inactive: 1.01"},
      {"smiles": "C[C@H]1CN([C@@H](C)CO)C(=O)c2cccc(NC(=O)Nc3ccc(C(F)(F)F)cc3)c2O[C@@H]1CN(C)Cc1ccc(-c2ccccc2)cc1", "relative growth": "inactive: 0.978"},
      {"smiles": "COc1ccc(C#Cc2ccc([C@@H]3[C@@H](CO)N4CCCCN(S(=O)(=O)c5cn(C)cn5)C[C@H]34)cc2)cc1", "relative growth": "inactive: 0.995"},
      {"smiles": "CC(C)NC(=O)Nc1ccc2c(c1)C(=O)N([C@@H](C)CO)C[C@H](C)[C@H](CN(C)S(=O)(=O)c1cccs1)O2", "relative growth": "inactive: 1.02"},
      {"smiles": "Cc1ccc(S(=O)(=O)Nc2ccc3c(c2)C(=O)N([C@H](C)CO)C[C@@H](C)[C@@H](CN(C)Cc2ccncc2)OCCCC[C@@H](C)O3)cc1", "relative growth": "inactive: 0.988"},
      {"smiles": "C[C@@H]1CN([C@@H](C)CO)C(=O)c2cc(NC(=O)NC3CCCCC3)ccc2O[C@H]1CN(C)Cc1ccc(C(F)(F)F)cc1", "relative growth": "inactive: 1.03"},
      {"smiles": "Cc1ccc(S(=O)(=O)N2C[C@@H](O)COC[C@H]3O[C@H](CC(=O)NCc4ccc(C(F)(F)F)cc4)CC[C@@H]32)cc1", "relative growth": "inactive: 0.992"},
      {"smiles": "CC(C)NC(=O)N(C)C[C@@H]1Oc2ccc(NC(=O)Nc3ccc4c(c3)OCO4)cc2C(=O)N([C@H](C)CO)C[C@@H]1C", "relative growth": "inactive: 1"},
      {"smiles": "CN1C(=O)c2cc(NC(=O)c3ccc(C(F)(F)F)cc3)ccc2OC[C@@H]2O[C@@H](CC(=O)NC3Cc4ccccc4C3)CC[C@@H]21", "relative growth": "inactive: 1.03"},
      {"smiles": "Cc1noc(C)c1NC(=O)Nc1ccc2c(c1)C(=O)N([C@H](C)CO)C[C@H](C)[C@H](CN(C)S(=O)(=O)c1ccc(Cl)cc1)OCCCC[C@@H](C)O2", "relative growth": "inactive: 0.988"},
      {"smiles": "Cc1noc(C)c1NC(=O)Nc1ccc2c(c1)C(=O)N([C@H](C)CO)C[C@H](C)[C@@H](CN(C)C(=O)NC1CCCCC1)OCCCC[C@@H](C)O2", "relative growth": "inactive: 0.98"},
      {"smiles": "C[C@@H]1CN([C@H](C)CO)C(=O)c2cc(NC(=O)CCCN(C)C)ccc2O[C@@H](C)CCCCO[C@H]1CN(C)C(=O)Nc1ccc(F)cc1", "relative growth": "inactive: 0.969"},
      {"smiles": "C[C@@H]1CN([C@H](C)CO)S(=O)(=O)c2ccc(C#CC(C)(C)O)cc2O[C@@H]1CN(C)Cc1ccccc1", "relative growth": "inactive: 0.997"},
      {"smiles": "C=CCc1ccccc1OCC(O)CNC(C)C.Cl", "note": "(stereo not drawn)", "relative growth": "inactive: 0.904"},
      {"smiles": "Cc1noc(C)c1S(=O)(=O)Nc1ccc2c(c1)CC(=O)N([C@H](C)CO)C[C@H](C)[C@H](CN(C)S(=O)(=O)c1ccc(F)cc1)O2", "relative growth": "inactive: 0.998"},
      {"smiles": "Cc1noc(C)c1NC(=O)N[C@@H]1CC[C@@H](CC(=O)NCCCN(C)C)O[C@@H]1CO", "relative growth": "inactive: 0.991"},
      {"smiles": "Cc1noc(C)c1S(=O)(=O)N(C)C[C@H]1Oc2c(NS(=O)(=O)c3cn(C)cn3)cccc2C(=O)N([C@@H](C)CO)C[C@@H]1C", "relative growth": "inactive: 0.976"},
      {"smiles": "C[C@H]1CN([C@@H](C)CO)S(=O)(=O)c2ccc(C#Cc3ccncc3)cc2O[C@@H]1CN(C)S(=O)(=O)c1ccc(F)cc1", "relative growth": "inactive: 1.03"},
      {"smiles": "COc1ccc(NC(=O)N(C)C[C@@H]2OCCCC[C@H](C)Oc3ccc(NS(=O)(=O)c4ccc(C)cc4)cc3C(=O)N([C@H](C)CO)C[C@@H]2C)cc1", "relative growth": "inactive: 1.01"},
      {"smiles": "COc1ccc(NC(=O)N(C)C[C@H]2Oc3ccc(NC(=O)C4CC4)cc3C(=O)N([C@H](C)CO)C[C@@H]2C)cc1", "relative growth": "inactive: 0.985"},
      {"smiles": "COC(=O)c1c(CC[C@@H](CO)NC(=O)N[C@@H](C)Cn2cc(C3(O)CCCC3)nn2)oc(C(C)=O)c1C(=O)OC", "relative growth": "inactive: 0.907"},
      {"smiles": "C[C@@H]1CCCCO[C@H](CN(C)C(=O)Nc2ccccc2)[C@H](C)CN([C@H](C)CO)C(=O)c2cc(NS(=O)(=O)c3ccc(Cl)cc3)ccc2O1", "relative growth": "inactive: 0.994"},
      {"smiles": "Cc1noc(C)c1S(=O)(=O)N(C)C[C@@H]1Oc2ccc(NC(=O)CCN3CCOCC3)cc2CC(=O)N([C@@H](C)CO)C[C@H]1C", "relative growth": "inactive: 0.999"},
      {"smiles": "C[C@H](CO)N1C[C@H](C)[C@H](CN(C)C(=O)N[C@H](C)c2ccccc2)OCc2ccccc2-c2ccccc2C1=O", "relative growth": "inactive: 1.01"},
      {"smiles": "C[C@H](CO)N1C[C@H](C)[C@@H](CN(C)Cc2ccc(C(=O)Nc3ccccc3N)cc2)Oc2ccc(NS(=O)(=O)c3ccc(Cl)cc3)cc2CC1=O", "relative growth": "inactive: 1.01"},
      {"smiles": "C[C@@H]1CN([C@@H](C)CO)C(=O)c2cccc(NS(=O)(=O)c3ccccc3)c2O[C@@H]1CN(C)S(=O)(=O)c1cn(C)cn1", "relative growth": "inactive: 1.01"},
      {"smiles": "CC(C)CC#Cc1cnc2c(c1)C(=O)N([C@@H](C)CO)C[C@H](C)[C@H](CN(C)S(=O)(=O)c1cn(C)cn1)O2", "relative growth": "inactive: 0.992"},
      {"smiles": "C[C@H]1CN([C@@H](C)CO)C(=O)Cc2cc(NS(=O)(=O)c3cn(C)cn3)ccc2O[C@H]1CN(C)C(=O)NC1CCCCC1", "relative growth": "inactive: 0.996"},
      {"smiles": "CCO[C@H]1OC(C(=O)N2CCN(Cc3ccccc3)CC2)=C[C@@H](c2csc3ccccc23)[C@@H]1CCCOC(=O)NCCCCCC(=O)NO", "relative growth": "inactive: 0.993"},
      {"smiles": "CC(C)CNC(=O)[C@@]1(C)c2ccccc2C(=O)N(Cc2cc(C(F)(F)F)cc(C(F)(F)F)c2)[C@H]1c1ccc(CO)cc1", "relative growth": "inactive: 0.985"},
      {"smiles": "C[C@H]1CCc2[nH]c3ccccc3c2C1", "relative growth": "inactive: 1.01"},
      {"smiles": "CC(C)NCCCn1c(Sc2cc3c(cc2I)OCO3)nc2c(N)ncnc21", "relative growth": "inactive: 0.984"},
      {"smiles": "C[C@H](CO)N1C[C@H](C)[C@@H](CN(C)Cc2ccc(-c3ccccc3)cc2)Oc2ccc(NC(=O)c3ccncc3)cc2C1=O", "relative growth": "inactive: 0.995"},
      {"smiles": "CCN(CCO)CCCOc1ccc2c(Nc3cc(CC(=O)Nc4cccc(F)c4)n[nH]3)ncnc2c1", "relative growth": "inactive: 1.01"},
      {"smiles": "Cc1noc(C)c1NC(=O)N(C)C[C@@H]1Oc2c(NC(=O)C3CC3)cccc2C(=O)N([C@@H](C)CO)C[C@@H]1C", "relative growth": "inactive: 0.994"},
      {"smiles": "C[C@@H]1CN([C@@H](C)CO)C(=O)c2cccc(NC(=O)NC3CCCCC3)c2O[C@H]1CN(C)S(C)(=O)=O", "relative growth": "inactive: 0.992"},
      {"smiles": "C[C@@H]1CCCCO[C@H](CN(C)Cc2ccncc2)[C@H](C)CN([C@H](C)CO)C(=O)c2cc(NC(=O)c3ccccc3)ccc2O1", "relative growth": "inactive: 0.993"},
      {"smiles": "COc1ccc(CN(C)C[C@H]2Oc3ccc(NS(=O)(=O)c4cn(C)cn4)cc3C(=O)N([C@H](C)CO)C[C@@H]2C)cc1", "relative growth": "inactive: 0.96"},
      {"smiles": "CC(C)NC(=O)N(C)C[C@H]1Oc2cc(C#Cc3cccc(F)c3)ccc2S(=O)(=O)N([C@H](C)CO)C[C@@H]1C", "relative growth": "inactive: 1.04"},
      {"smiles": "Cc1ccc(S(=O)(=O)N(C)C[C@H]2OCCCC[C@@H](C)Oc3ccc(NC(=O)Nc4ccccc4)cc3C(=O)N([C@H](C)CO)C[C@H]2C)cc1", "relative growth": "inactive: 1"},
      {"smiles": "C[C@@H]1CCCCO[C@@H](CN(C)S(=O)(=O)c2cn(C)cn2)[C@H](C)CN([C@H](C)CO)C(=O)c2cc(NS(=O)(=O)c3ccc(F)cc3)ccc2O1", "relative growth": "inactive: 1.02"},
      {"smiles": "CC(C)NC(=O)Nc1ccc2c(c1)C(=O)N([C@H](C)CO)C[C@@H](C)[C@H](CN(C)C(=O)NC1CCCCC1)O2", "relative growth": "inactive: 0.97"},
      {"smiles": "C[C@@H]1CN([C@@H](C)CO)C(=O)c2cccc(NC(=O)Nc3ccccc3)c2O[C@H]1CN(C)S(=O)(=O)c1cn(C)cn1", "relative growth": "inactive: 1.01"},
      {"smiles": "C[C@@H]1CN([C@@H](C)CO)C(=O)c2cc(NC(=O)CCC(F)(F)F)ccc2O[C@@H](C)CCCCO[C@@H]1CN(C)C(=O)C1CCCCC1", "relative growth": "inactive: 0.992"},
      {"smiles": "COc1ccc2c3c(n(c2c1)C)[C@@H](CO)N(C[C@]13CCN(CC1)C(=O)c1ccccc1)C(=O)Nc1ccccc1F", "relative growth": "inactive: 1.03"},
      {"smiles": "C[C@@H]1CCCCO[C@@H](CN(C)Cc2ccncc2)[C@@H](C)CN([C@H](C)CO)C(=O)c2cc(NC(=O)CCCCCC(=O)Nc3ccccc3N)ccc2O1", "relative growth": "inactive: 0.966"},
      {"smiles": "C[C@@H]1CN([C@@H](C)CO)C(=O)c2ccccc2-c2ccccc2CO[C@@H]1CN(C)Cc1cccc(C(F)(F)F)c1", "relative growth": "inactive: 1.05"}
    ]}
  ]
}
